Assay results reported in the supplement of paper PMC9151546.
Single values are uncertain, as repeats are few or missing.

What was measured:
[1] = test system: CHO-K1; assay: micronucleus frequency (% of nucleated events); higher = more micronuclei (genotoxic)
[2] = test system: CHO-K1; assay: hypodiploid nuclei frequency (% of nucleated events); higher = more hypodiploid events (aneugenic)
Protocol: (§1)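 Flow-cytometric in vitro micronucleus assay (Litron MicroFlow) in CHO-K1 cells in 96-well plates, 19 concentrations (4.5-200 µM, n=1 per concentration). Without S9, cells were exposed for 24 h and sampled at 48 h. With Aroclor 1254-induced rat liver S9, cells were exposed for 3-4 h and sampled at 27-28 h. Read-outs are %MN and %hypodiploid nuclei relative to nucleated events, and relative survival as the nuclei-to-bead ratio versus the 1% DMSO vehicle control (x100).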

[3] = test system: CHO-K1; assay: relative survival (nuclei to bead ratio vs DMSO control) (% of vehicle control); higher = more surviving cells
Protocol: as §1
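For hypodiploid nuclei frequency (% of nucleated events) in this document: hypodiploid nuclei gated on a flow cytometer with 488 nm excitation after SYTOX Green staining, cultures at 37 °C, positive controls vinblastine without S9 and cyclophosphamide with S9.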
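For micronucleus frequency (% of nucleated events) in this document: cells lysed with nuclei stained by SYTOX Green, then micronucleus-gated events counted against nucleated events by flow cytometry with 488 nm excitation.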
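For relative survival (nuclei to bead ratio vs DMSO control) in this document: Lysed-cell nuclei stained with SYTOX Green and counted against counting beads by flow cytometry at 488 nm excitation, with vinblastine (no S9) and cyclophosphamide (plus S9) as positive controls.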

Nc1ccc2c(c1)C(=O)c1ccccc1C2=O [2-Aminoanthraquinone]
Settings	hypodiploid nuclei frequency, [2] [%]	micronucleus frequency, [1] [%]	relative survival, [3]
concentration: 4.55 (µM), S9 metabolic activation: with S9, exposure time: 3-4 hours	0.24	1.02	158
concentration: 4.55 (µM), S9 metabolic activation: without S9, exposure time: 24 hours	0.56	1.6	115
concentration: 5.69 (µM), S9 metabolic activation: with S9, exposure time: 3-4 hours	0.16	1.26	144
concentration: 5.69 (µM), S9 metabolic activation: without S9, exposure time: 24 hours	0.46	1.02	90.1
concentration: 7.11 (µM), S9 metabolic activation: with S9, exposure time: 3-4 hours	0.2	1.36	160
concentration: 7.11 (µM), S9 metabolic activation: without S9, exposure time: 24 hours	0.44	1.34	130
concentration: 8.88 (µM), S9 metabolic activation: with S9, exposure time: 3-4 hours	0.16	1.48	190
concentration: 8.88 (µM), S9 metabolic activation: without S9, exposure time: 24 hours	0.48	1.76	121
concentration: 11.1 (µM), S9 metabolic activation: with S9, exposure time: 3-4 hours	0.22	1.18	172
concentration: 11.1 (µM), S9 metabolic activation: without S9, exposure time: 24 hours	0.58	1.62	98.6
concentration: 13.9 (µM), S9 metabolic activation: with S9, exposure time: 3-4 hours	0.26	1.54	177
concentration: 13.9 (µM), S9 metabolic activation: without S9, exposure time: 24 hours	0.54	1.6	123
concentration: 17.4 (µM), S9 metabolic activation: with S9, exposure time: 3-4 hours	0.26	1.74	187
concentration: 17.4 (µM), S9 metabolic activation: without S9, exposure time: 24 hours	0.6	1.26	105
concentration: 21.7 (µM), S9 metabolic activation: with S9, exposure time: 3-4 hours	0.3	1.66	172
concentration: 21.7 (µM), S9 metabolic activation: without S9, exposure time: 24 hours	0.48	1.68	102
concentration: 27.1 (µM), S9 metabolic activation: with S9, exposure time: 3-4 hours	0.36	1.34	132
concentration: 27.1 (µM), S9 metabolic activation: without S9, exposure time: 24 hours	1.06	1.62	57.8
concentration: 33.9 (µM), S9 metabolic activation: with S9, exposure time: 3-4 hours	0.26	1.82	118
concentration: 33.9 (µM), S9 metabolic activation: without S9, exposure time: 24 hours	0.86	1.79	40.6
concentration: 42.4 (µM), S9 metabolic activation: with S9, exposure time: 3-4 hours	0.38	1.76	134
concentration: 42.4 (µM), S9 metabolic activation: without S9, exposure time: 24 hours	–	–	18
concentration: 53 (µM), S9 metabolic activation: with S9, exposure time: 3-4 hours	0.28	2.16	118
concentration: 53 (µM), S9 metabolic activation: without S9, exposure time: 24 hours	–	–	4.36
concentration: 66.2 (µM), S9 metabolic activation: with S9, exposure time: 3-4 hours	0.28	1.96	133
concentration: 66.2 (µM), S9 metabolic activation: without S9, exposure time: 24 hours	–	–	2.45
concentration: 82.7 (µM), S9 metabolic activation: with S9, exposure time: 3-4 hours	0.32	2.04	147
concentration: 82.7 (µM), S9 metabolic activation: without S9, exposure time: 24 hours	–	–	1.2
concentration: 103 (µM), S9 metabolic activation: with S9, exposure time: 3-4 hours	0.22	1.94	154
concentration: 129 (µM), S9 metabolic activation: with S9, exposure time: 3-4 hours	0.26	2.08	160
concentration: 129 (µM), S9 metabolic activation: without S9, exposure time: 24 hours	–	–	3.14
concentration: 162 (µM), S9 metabolic activation: with S9, exposure time: 3-4 hours	0.4	2.7	172
concentration: 202 (µM), S9 metabolic activation: with S9, exposure time: 3-4 hours	0.44	2.32	175

Cc1cn([C@H]2C[C@H](N=[N+]=[N-])[C@@H](CO)O2)c(=O)[nH]c1=O [3'-Azido-3'-deoxythymidine]
hypodiploid nuclei frequency [%], [2]
Settings	S9 metabolic activation: with S9, exposure time: 3-4 hours	S9 metabolic activation: without S9, exposure time: 24 hours
concentration: 4.5 (µM)	0.12	0.58
concentration: 5.63 (µM)	0.16	0.62
concentration: 7.04 (µM)	0.18	0.64
concentration: 8.8 (µM)	0.18	0.68
concentration: 11 (µM)	0.18	1
concentration: 13.7 (µM)	0.28	0.82
concentration: 17.2 (µM)	0.18	0.68
concentration: 21.5 (µM)	0.1	0.94
concentration: 26.8 (µM)	0.1	0.74
concentration: 33.6 (µM)	0.12	0.9
concentration: 41.9 (µM)	0.16	0.62
concentration: 52.4 (µM)	0.16	0.88
concentration: 65.5 (µM)	0.14	1.06
concentration: 81.9 (µM)	0.08	1.16
concentration: 102 (µM)	0.16	1.06
concentration: 128 (µM)	0.16	1.08
concentration: 160 (µM)	0.28	1.08
concentration: 200 (µM)	0.08	1.8

C=CC(N)=O [Acrylamide]
hypodiploid nuclei frequency [%], [2]
Settings	S9 metabolic activation: with S9, exposure time: 3-4 hours	S9 metabolic activation: without S9, exposure time: 24 hours
concentration: 4.5 (µM)	0.26	0.44
concentration: 5.63 (µM)	0.06	0.5
concentration: 7.04 (µM)	0.14	0.34
concentration: 8.8 (µM)	0.2	0.46
concentration: 11 (µM)	0.08	0.56
concentration: 13.7 (µM)	0.18	0.48
concentration: 17.2 (µM)	0.16	0.46
concentration: 21.5 (µM)	0.26	0.76
concentration: 26.8 (µM)	0.24	0.78
concentration: 33.6 (µM)	0.22	0.5
concentration: 41.9 (µM)	0.32	0.7
concentration: 52.4 (µM)	0.64	0.48
concentration: 65.5 (µM)	0.26	0.98
concentration: 81.9 (µM)	0.18	1.02
concentration: 102 (µM)	0.4	1.24
concentration: 128 (µM)	0.32	1.64
concentration: 160 (µM)	0.38	1.42
concentration: 200 (µM)	0.22	1.5
